Measured values published in the supplement of paper PMC10126150.
Sequences with one replicate were seen in a single cluster, so their values are uncertain.

tested on: ATP; test: switch fluorescence ratio, 500 uM ATP over buffer (Cy3 cluster intensity, sum of 5 cycles each) (fold (ratio)); higher = stronger signal-on switching upon ATP binding; sequences stand for … in TCGTCGGCAGCGTCAGATGTGTATAAGAGACAGTTTTTTTTTTTTTTTTTTTTTTTTT…TC; settings: aptamer strand: ATP DNA aptamer (quencher-CACCTGGGGGAGTATTGCGGAGGAAGG + anchor), 100 nM annealed; ATP concentration: 500 uM; one replicate
How it was run: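 Per cluster, summed Cy3 intensity from the target cycles was divided by that from the buffer cycles to give the fluorescence ratio, then averaged per switch-domain sequence. Clusters outside 100-1000 RFU were excluded. The Cy3-labelled switching-strand clusters, on a modified Illumina MiSeq flow-cell, were annealed to 100 nM quencher-labelled ATP aptamer and imaged in selection buffer, then after 15 min with 500 uM ATP at 22 °C, for five cycles with NaOH stripping and re-annealing between them.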
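Also: ATP exposure 15 min at 22 °C before imaging.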

Sequence	switch fluorescence ratio
CAATCCTGTG	0.989
CAATCGATC	0.981
CAATCGGATC	1
CAATCGGGGA	0.986
CAATCTAAG	0.998
CAATCTAAGG	0.961
CAATGGCTTG	0.992
CAATGGTGCT	1.02
CAATGTCCGG	1.03
CAATGTCGTG	0.975
CAATGTTTCG	1
CAATTAAGCA	0.99
CAATTAATCG	1.01
CAATTCATTT	1.14
CAATTCCCAA	1.02
CAATTCGATG	1.04
CAATTCTCAG	1.09
CAATTGCTCT	1.05
CAATTTGTTA	0.99
CAATTTTCAG	1.02
CACAACGGTT	1.02
CACAAGAACC	1.05
CACAAGATAA	1.05
CACAATTGGT	1.03
CACACAACGG	1.21

Sequence	switch fluorescence ratio
CACACAATGG	1.15
CACACCACGA	1.49
CACACGGCCG	0.991
CACACGTA	1.31
CACAGAAGCA	1.06
CACAGAATTT	1.03
CACAGAGACT	1.01
CACAGCAATG	2.24
CACAGCGGGT	1.08
CACAGGATCC	1.02
CACAGGTCTA	1.04
CACAGTATTC	1.11
CACAGTGCC	1.03
CACATACATC	1.34
CACATACGCA	1.22
CACATAGCC	1.04
CACATAGGTG	1.56
CACATGTGTC	1.02
CACATTAGCT	1.03
CACATTATGG	1.04
CACATTCGGT	1
CACATTGCTT	1.02
CACATTGGGG	0.98
CACCAAGTAG	1.03
CACCAATTAT	1.01

Sequence	switch fluorescence ratio
CACCAGAGTT	1.04
CACCAGGAGA	1.56
CACCAGTGG	1.02
CACCCAAAAA	1.04
CACCCAGCAC	1.8
CACCCCATCA	1.06
CACCCGAGGC	1.26
CACCCTGCAA	3.81
CACCCTTTTG	1.04
CACCGCATTA	1.63
CACCGGTGTG	1.01
CACCGGTTGC	1.32
CACCTAAACG	1.09
CACCTCAACG	1.14
CACCTGACCC	1.34
CACCTGGGAG	1.02
CACCTTTGGC	1.08
CACGACAAGA	1.58
CACGAGCGGG	1.03
CACGAGTCCT	0.995
CACGAGTGAG	1.01
CACGCACTTT	1.32
CACGCGCTCG	1.07
CACGCTATGG	1.56
CACGGAAAAC	1.12

Sequence	switch fluorescence ratio
CACGGAAGGT	1.1
CACGGATTAG	1.02
CACGGATTTG	1.02
CACGGCGTGG	0.971
CACGGCTGCG	0.993
CACGGGAAGA	1.02
CACGGGATCA	1.06
CACGGGGCGG	0.992
CACGTAGAGC	1.05
CACGTATCTT	1.19
CACGTCACAA	1.46
CACGTCGCAC	1.26
CACGTCTATG	1.05
CACGTGAGTC	0.972
CACGTGCATT	1.06
CACGTGCGTT	1.03
CACGTTATAT	1.18
CACGTTGTTC	0.989
CACGTTTCGG	1.03
CACTACGATC	1.06
CACTCACTGC	1.08
CACTCGCGAT	3.17
CACTCTATCG	0.979
CACTCTCTTT	1.03
CACTGCCGTG	1.01
